According to PMC12528901:
No constants are given. Whether binding was seen depends on the method and setting. Binding seen in cells or lysates may run through a third protein. Some results given as binding are weak or reduced against the parent protein; the word gives no strength. For some of these results: Tags and fused reporters may be left off the sequences shown.

Sequences of proteins named here, by UniProt entry; tags and fusion partners are left off. A change or cut given only in a name is not applied to a line headed by its entry. A line that says so, or that is headed by a name, gives the form on record, which may keep a tag or linker.
UniProt Q5Y5T5: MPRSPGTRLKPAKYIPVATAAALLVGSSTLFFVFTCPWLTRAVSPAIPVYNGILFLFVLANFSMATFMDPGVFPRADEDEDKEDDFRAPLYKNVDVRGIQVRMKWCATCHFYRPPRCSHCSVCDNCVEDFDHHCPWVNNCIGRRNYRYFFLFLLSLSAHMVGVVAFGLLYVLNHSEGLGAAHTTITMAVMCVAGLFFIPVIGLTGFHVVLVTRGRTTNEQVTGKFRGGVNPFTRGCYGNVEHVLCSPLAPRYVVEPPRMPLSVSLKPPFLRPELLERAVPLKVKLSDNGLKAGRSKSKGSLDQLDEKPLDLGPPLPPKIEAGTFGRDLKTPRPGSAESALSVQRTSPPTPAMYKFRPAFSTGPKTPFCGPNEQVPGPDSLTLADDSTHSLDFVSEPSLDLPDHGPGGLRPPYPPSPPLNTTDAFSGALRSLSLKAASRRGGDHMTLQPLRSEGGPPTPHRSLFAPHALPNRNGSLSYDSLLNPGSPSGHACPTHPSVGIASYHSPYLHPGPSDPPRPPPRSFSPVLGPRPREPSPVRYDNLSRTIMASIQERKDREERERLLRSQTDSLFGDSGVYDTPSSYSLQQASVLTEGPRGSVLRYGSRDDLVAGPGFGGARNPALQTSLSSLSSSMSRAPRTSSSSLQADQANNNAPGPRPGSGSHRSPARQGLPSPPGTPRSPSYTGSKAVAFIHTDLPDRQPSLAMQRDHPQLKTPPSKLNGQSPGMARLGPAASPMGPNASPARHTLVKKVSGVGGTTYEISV
UniProt Q8VDZ4: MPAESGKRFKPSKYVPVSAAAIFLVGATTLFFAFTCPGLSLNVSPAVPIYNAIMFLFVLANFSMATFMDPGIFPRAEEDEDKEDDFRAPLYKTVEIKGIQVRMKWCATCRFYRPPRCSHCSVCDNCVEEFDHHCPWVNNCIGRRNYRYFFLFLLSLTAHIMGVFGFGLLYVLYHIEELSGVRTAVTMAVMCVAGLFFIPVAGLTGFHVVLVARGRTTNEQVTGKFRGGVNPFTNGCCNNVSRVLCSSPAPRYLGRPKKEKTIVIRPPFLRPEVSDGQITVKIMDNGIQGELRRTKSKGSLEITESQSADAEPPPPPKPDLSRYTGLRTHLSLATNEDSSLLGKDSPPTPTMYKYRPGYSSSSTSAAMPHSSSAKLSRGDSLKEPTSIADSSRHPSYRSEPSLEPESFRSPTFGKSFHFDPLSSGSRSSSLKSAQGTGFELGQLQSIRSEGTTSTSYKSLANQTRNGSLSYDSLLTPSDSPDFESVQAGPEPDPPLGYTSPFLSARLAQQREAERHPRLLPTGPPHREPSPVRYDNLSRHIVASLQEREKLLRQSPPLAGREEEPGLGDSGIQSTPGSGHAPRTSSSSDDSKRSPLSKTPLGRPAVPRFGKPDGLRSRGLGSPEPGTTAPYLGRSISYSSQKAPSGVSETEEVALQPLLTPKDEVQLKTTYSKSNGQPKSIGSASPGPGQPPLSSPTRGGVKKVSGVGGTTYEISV
HA-Zdhhc5^RNAA (mouse Zdhhc5 double mutant) (Q8VDZ4, form named): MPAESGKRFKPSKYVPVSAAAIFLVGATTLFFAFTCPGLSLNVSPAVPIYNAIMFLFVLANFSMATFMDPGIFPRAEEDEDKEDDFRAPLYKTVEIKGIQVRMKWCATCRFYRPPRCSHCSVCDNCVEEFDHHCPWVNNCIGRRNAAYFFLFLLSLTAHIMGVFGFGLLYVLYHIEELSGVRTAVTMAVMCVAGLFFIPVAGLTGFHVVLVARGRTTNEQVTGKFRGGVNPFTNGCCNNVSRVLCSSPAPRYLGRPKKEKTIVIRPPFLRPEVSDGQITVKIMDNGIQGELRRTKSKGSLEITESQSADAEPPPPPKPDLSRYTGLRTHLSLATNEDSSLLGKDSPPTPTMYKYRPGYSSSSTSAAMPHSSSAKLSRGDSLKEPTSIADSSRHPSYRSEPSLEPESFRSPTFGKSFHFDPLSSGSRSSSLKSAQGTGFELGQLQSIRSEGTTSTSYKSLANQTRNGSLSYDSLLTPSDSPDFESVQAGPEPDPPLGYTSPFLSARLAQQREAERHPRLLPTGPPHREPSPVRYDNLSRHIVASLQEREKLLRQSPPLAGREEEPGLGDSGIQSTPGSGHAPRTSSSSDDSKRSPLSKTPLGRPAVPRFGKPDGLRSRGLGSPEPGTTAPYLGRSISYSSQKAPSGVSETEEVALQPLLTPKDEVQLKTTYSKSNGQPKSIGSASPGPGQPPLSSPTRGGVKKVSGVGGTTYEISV
UniProt Q8BQQ1: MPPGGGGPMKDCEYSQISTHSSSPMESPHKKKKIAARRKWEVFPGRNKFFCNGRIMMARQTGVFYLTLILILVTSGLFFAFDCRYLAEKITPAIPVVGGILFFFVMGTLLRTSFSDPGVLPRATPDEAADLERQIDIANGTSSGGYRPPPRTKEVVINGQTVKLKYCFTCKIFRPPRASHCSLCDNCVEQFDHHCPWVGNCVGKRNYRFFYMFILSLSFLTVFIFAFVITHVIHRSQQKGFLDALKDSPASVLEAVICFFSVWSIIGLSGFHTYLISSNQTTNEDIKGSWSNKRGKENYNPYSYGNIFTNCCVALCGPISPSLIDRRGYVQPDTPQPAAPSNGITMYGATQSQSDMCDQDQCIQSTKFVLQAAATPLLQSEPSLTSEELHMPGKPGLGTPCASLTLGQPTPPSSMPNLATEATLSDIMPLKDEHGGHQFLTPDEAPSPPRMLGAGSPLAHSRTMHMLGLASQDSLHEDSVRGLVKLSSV
UniProt Q7Z5G4: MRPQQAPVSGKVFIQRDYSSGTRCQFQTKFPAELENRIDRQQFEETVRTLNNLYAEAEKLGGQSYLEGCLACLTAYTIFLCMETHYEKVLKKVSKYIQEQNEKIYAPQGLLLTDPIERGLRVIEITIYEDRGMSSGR

Legend:
Assay in all cases: co-IP; HA-tagged mouse Zdhhc proteins transfected into 293T ZDHHC5 KO and control cells; lysis in 50 mM Tris-HCl pH 7.4, 150 mM NaCl, 2 mM EDTA, 1% DDM; anti-HA magnetic beads overnight at 4 °C; washes in TBS with 0.5% DDM; blots for endogenous GOLGA7 or ZDHHC9
[1] = target: T1, HA-tagged mouse Zdhhc20 (mouse) (UniProt Q5Y5T1)
T1 sequence: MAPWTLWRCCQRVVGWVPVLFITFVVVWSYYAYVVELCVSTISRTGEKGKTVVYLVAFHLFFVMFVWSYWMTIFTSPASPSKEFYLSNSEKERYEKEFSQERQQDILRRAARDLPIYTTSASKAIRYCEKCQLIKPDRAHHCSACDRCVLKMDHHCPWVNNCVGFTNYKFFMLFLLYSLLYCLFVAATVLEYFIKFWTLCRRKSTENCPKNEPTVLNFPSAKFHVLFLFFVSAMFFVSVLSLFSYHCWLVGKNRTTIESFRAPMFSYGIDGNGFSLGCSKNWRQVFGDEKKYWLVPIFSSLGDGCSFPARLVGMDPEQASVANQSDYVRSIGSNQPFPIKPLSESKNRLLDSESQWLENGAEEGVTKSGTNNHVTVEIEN

[2] = target: T2, HA-tagged mouse Zdhhc3 (mouse) (UniProt Q8R173)
T2 sequence: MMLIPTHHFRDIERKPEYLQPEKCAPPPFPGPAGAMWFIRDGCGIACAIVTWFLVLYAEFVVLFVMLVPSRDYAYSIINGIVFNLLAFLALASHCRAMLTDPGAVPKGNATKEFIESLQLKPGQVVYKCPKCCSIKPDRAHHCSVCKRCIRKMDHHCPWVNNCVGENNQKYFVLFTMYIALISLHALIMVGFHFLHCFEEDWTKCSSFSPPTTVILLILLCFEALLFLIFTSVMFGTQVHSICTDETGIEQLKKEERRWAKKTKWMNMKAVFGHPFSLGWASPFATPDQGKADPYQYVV

[3] = target: HA-tagged mouse Zdhhc8 (mouse) (UniProt Q5Y5T5)
[4] = target: HA-Zdhhc5^RNAA (mouse Zdhhc5 double mutant) (mouse) (UniProt Q8VDZ4)
[5] = target: T3, HA-tagged mouse Zdhhc13 (mouse) (UniProt Q9CWU2)
T3 sequence: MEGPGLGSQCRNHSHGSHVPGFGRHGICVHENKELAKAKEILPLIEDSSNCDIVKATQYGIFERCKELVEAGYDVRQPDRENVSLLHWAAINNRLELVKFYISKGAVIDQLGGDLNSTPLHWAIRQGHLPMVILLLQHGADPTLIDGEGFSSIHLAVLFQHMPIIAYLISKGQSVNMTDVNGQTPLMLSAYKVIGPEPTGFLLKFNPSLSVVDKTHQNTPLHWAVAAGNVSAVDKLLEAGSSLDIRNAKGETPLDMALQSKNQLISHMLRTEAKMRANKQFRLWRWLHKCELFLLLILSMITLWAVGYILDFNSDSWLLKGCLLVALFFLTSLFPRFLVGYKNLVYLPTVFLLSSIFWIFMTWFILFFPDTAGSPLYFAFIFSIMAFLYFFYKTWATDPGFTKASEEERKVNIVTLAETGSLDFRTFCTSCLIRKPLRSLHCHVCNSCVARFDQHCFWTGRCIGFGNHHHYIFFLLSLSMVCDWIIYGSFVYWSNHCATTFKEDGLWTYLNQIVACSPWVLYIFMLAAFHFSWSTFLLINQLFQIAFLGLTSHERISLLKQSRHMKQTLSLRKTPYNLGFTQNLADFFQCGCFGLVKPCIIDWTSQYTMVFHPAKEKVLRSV

[6] = target: HA-tagged mouse Zdhhc14 (mouse) (UniProt Q8BQQ1)
[7] = target: T4, HA-tagged mouse Zdhhc12 (mouse) (UniProt Q8VC90)
T4 sequence: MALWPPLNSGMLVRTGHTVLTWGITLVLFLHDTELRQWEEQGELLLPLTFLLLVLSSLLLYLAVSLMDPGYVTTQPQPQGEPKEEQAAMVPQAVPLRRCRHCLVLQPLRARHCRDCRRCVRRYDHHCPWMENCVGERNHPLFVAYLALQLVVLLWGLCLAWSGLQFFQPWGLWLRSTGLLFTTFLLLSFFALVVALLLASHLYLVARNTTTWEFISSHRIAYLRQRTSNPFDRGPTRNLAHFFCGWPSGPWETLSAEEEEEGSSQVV

binding [1]: no binding | binding [2]: no binding | binding [3]: binds | binding [4]: no binding | binding [5]: no binding | binding [6]: binds | binding [7]: no binding
Substance: endogenous human golgin A7 (GOLGA7) (from UniProt Q7Z5G4 1-137)
